From patent US5763404A, “Methods for using LHRH antagonists with low histamine release” (priority 1995, dated 1998)
“And” between values parts separate entries of the source, which are not always exact repeats. Equal values may be shown once. Part of at least one peptide drawing is inferred or uncertain, most often the ends. Non-standard residues stand in square brackets, D forms with d. Residues, ends and D or L forms follow the SMILES beside them. *: point of attachment. dPhe(4-Cl) = N[C@H](Cc1ccc(Cl)cc1)C(=O)O; d2Nal = N[C@H](Cc1ccc2ccccc2c1)C(=O)O; Lys(iPr) = CC(C)NCCCC[C@H](N)C(=O)O; d3Pal = N[C@H](Cc1cccnc1)C(=O)O; Nicotinoyl = O=C(c1cccnc1)*

Test system: 26 days old female rats
Assay: oral activity: serum LH and FSH after agonist [D-Qal^6]-LHRH
Assay type: in vivo, rat
Experimental: For the determination of duration of action, the antagonist was administered s.c. or orally to 26 days old female rats at a specific time before administration of the agonist, [D-Qal^6 ]-LHRH. The serum levels of rat luteinizing hormone (LH) and rat follicle stimulating hormone (FSH) were then measured 2 hours after the agonist administration by RIA. The oral administration was done through force-feeding with feeding tubes.

[1] = oral 30 μg in 10 mM HOAC:Water (1:1), -2 hrs, agonist 15 ng sc, +2 hrs
[2] = oral 30 μg in 10 mM HOAC:Water (1:1), -2 hrs, agonist 50 ng sc, +2 hrs
[3] = oral 100 μg in 10 mM HOAC:Water (1:1), -2 hrs, agonist 15 ng sc, +2 hrs
[4] = oral 100 μg in 10 mM HOAC:Water (1:1), -2 hrs, agonist 50 ng sc, +2 hrs
[5] = oral 300 μg in 10 mM HOAC:Water (1:1), -2 hrs, agonist 15 ng sc, +2 hrs
[6] = oral 300 μg in 10 mM HOAC:Water (1:1), -2 hrs, agonist 50 ng sc, +2 hrs
[7] = oral 300 μg, -24 hr, agonist 10 ng sc, +2 hours
[8] = oral 900 μg in 10 mM HOAC:Water (1:1), -2 hrs, agonist 50 ng sc, +2 hrs
[9] = oral in water 10 μg, -2 hr, agonist 5 ng sc, +2 hours
[10] = oral in water 10 μg, -2 hr, agonist 10 ng sc, +2 hours
[11] = oral in water 30 μg, -2 hr, agonist 5 ng sc, +2 hours
[12] = oral in water 30 μg, -2 hr, agonist 10 ng sc, +2 hours
[13] = oral in water 100 μg, -2 hr, agonist 5 ng sc, +2 hours
[14] = oral in water 100 μg, -2 hr, agonist 10 ng sc, +2 hours
[15] = oral in water 100 μg, -24 hr, agonist 5 ng sc, +2 hours
[16] = oral in water 100 μg, -24 hr, agonist 10 ng sc, +2 hours
[17] = oral in water 100 μg, -48 hr, agonist 5 ng sc, +2 hours
[18] = oral in water 100 μg, -48 hr, agonist 10 ng sc, +2 hours
[19] = oral in water 300 μg, -2 hr, agonist 5 ng sc, +2 hours
[20] = oral in water 300 μg, -2 hr, agonist 10 ng sc, +2 hours
[21] = oral in water 300 μg, -24 hr, agonist 5 ng sc, +2 hours
[22] = oral in water 300 μg, -48 hr, agonist 5 ng sc, +2 hours
[23] = oral in water 300 μg, -48 hr, agonist 10 ng sc, +2 hours
[24] = vehicle corn oil, oral 100 μg, -2 hrs, agonist 50 ng sc, +2 hrs
[25] = vehicle corn oil, oral 300 μg, -2 hrs, agonist 50 ng sc, +2 hrs
[26] = vehicle corn oil, oral 900 μg, -2 hrs, agonist 50 ng sc, +2 hrs
[27] = vehicle water (diluted 1:1 with 10 mM HOAC:Water), oral 900 μg, -2 hrs, agonist 50 ng sc, +2 hrs
[28] = vehicle water, oral 100 μg, -2 hrs, agonist 50 ng sc, +2 hrs
[29] = vehicle water, oral 300 μg, -2 hrs, agonist 50 ng sc, +2 hrs

## CC(=O)N[C@H](Cc1ccc2ccccc2c1)C(=O)N[C@H](Cc1ccc(Cl)cc1)C(=O)N[C@H](Cc1cccnc1)C(=O)N[C@@H](CO)C(=O)N[C@@H](CCCCNC(=O)c1cccnc1)C(=O)N[C@H](CCCCNC(=O)c1cccnc1)C(=O)N[C@@H](CC(C)C)C(=O)N[C@@H](CCCCNC(C)C)C(=O)N1CCC[C@H]1C(=O)N[C@H](C)C(N)=O [Antide, [N-Ac-D-2-Nal^1, D-pClPhe^2, D-3-Pal^3, NicLys^5, D-NicLys^6, ILys^8, D-Ala^10]-LHRH] (Ac-[d2Nal][dPhe(4-Cl)][d3Pal]SK(Nicotinoyl)[dK](Nicotinoyl)L[Lys(iPr)]P[dA]-NH2)
[1]
  FSH: 1718 ± 223 ng/mL
  LH: 75 ± 3 ng/mL
[2]
  FSH: 2262 ± 55 ng/mL
  LH: 93 ± 7 ng/mL
[3]
  FSH: 738 ± 89 ng/mL
  LH: 20 ± 4 ng/mL
[4]
  FSH: 1345 ± 199 ng/mL
  LH: 49 ± 7 ng/mL
[5]
  FSH: 472 ± 26 ng/mL
  LH: 5 ± 1 ng/mL
[6]
  FSH: 630 ± 40 ng/mL
  LH: 19 ± 3 ng/mL
[7]
  FSH: 1119 ± 71 ng/mL
  Serum LH: 25 ± 3 ng/mL
[8]
  FSH: 450 ± 48 ng/mL
  LH: 5.3 ± 1.2 ng/mL
[9]
  FSH: 588 ± 70 ng/mL
  Serum LH: 19 ± 4 ng/mL
[10]
  FSH: 1729 ± 243 ng/mL
  Serum LH: 51 ± 8 ng/mL
[11]
  FSH: 573 ± 67 ng/mL
  Serum LH: 6 ± 1 ng/mL
[12]
  FSH: 1051 ± 141 ng/mL
  Serum LH: 22 ± 4 ng/mL
[13]
  FSH: 320 ± 48 ng/mL
  Serum LH: 1 ± 0.3 ng/mL
[14]
  FSH: 548 ± 83 ng/mL
  Serum LH: 7 ± 3 ng/mL
[15]
  FSH: 596 ± 50 ng/mL
  Serum LH: 9 ± 2 ng/mL
[16]
  FSH: 1008 ± 285 ng/mL and 1119 ± 71 ng/mL
  Serum LH: 24 ± 6 ng/mL and 25 ± 3 ng/mL
[17]
  FSH: 481 ± 27 ng/mL
  Serum LH: 4 ± 0.8 ng/mL
[18]
  FSH: 792 ± 110 ng/mL
  Serum LH: 18 ± 2 ng/mL
[19]
  FSH: 327 ± 63 ng/mL
  Serum LH: 0.4 ± 0.4 ng/mL
[20]
  FSH: 251 ± 24 ng/mL
  Serum LH: 0.5 ± .06 ng/mL
[21]
  FSH: 462 ± 54 ng/mL
  Serum LH: 6 ± 0.3 ng/mL
[22]
  FSH: 600 ± 72 ng/mL
  Serum LH: 8 ± 2 ng/mL
[23]
  FSH: 1021 ± 202 ng/mL
  Serum LH: 25 ± 3 ng/mL
[24]
  FSH: 2148 ± 234 ng/mL
  LH: 7.2e+07 ± 1.2e+07 ng/mL
[25]
  FSH: 792 ± 137 ng/mL
  LH: 2e+07 ± 4e+06 ng/mL
[26]
  FSH: 599 ± 59 ng/mL
  LH: 7e+06 ± 2e+06 ng/mL
[27]
  FSH: 374 ± 80 ng/mL
  LH: 6.3e+06 ± 3e+06 ng/mL
[28]
  FSH: 1372 ± 84 ng/mL
  LH: 4.4e+07 ± 5e+06 ng/mL
[29]
  FSH: 936 ± 150 ng/mL
  LH: 2e+07 ± 4e+06 ng/mL
